# This is a noisy data set.
# Assay: amyloid nucleation score relative to library mode (yeast Sup35 reporter selection) (log enrichment difference); higher = more amyloid nucleation; sequences are the first 22 residues of the Bri2 peptide extended by up to 12 random residues
# Settings: random library (experiment): 1;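 active = nucleation score significantly above 0 at FDR 0.05; inactive = not significantly above 0 or absent from output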
# 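Further: [psi-pin-] Saccharomyces cerevisiae expressing SupN fusions, induced by 100 µM Cu2SO4, selected 7 d at 30 °C without adenine and uracil, scored by deep sequencing of output versus input.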
row,Sequence,amyloid nucleation score
1,EASNCFAIRHFENKFAVETLICQHWFIFSCVLSA,inactive
2,EASNCFAIRHFENKFAVETLICQHYGSNSRIAIS,inactive
3,EASNCFAIRHFENKFAVETLICQIFGNQVRYFLL,inactive
4,EASNCFAIRHFENKFAVETLICQIGRGNAGGRAW,3.7
5,EASNCFAIRHFENKFAVETLICQITFGFVWDFRT,inactive
6,EASNCFAIRHFENKFAVETLICQIVIDFYGVSDG,inactive
7,EASNCFAIRHFENKFAVETLICQIWAND,5.74
8,EASNCFAIRHFENKFAVETLICQIWDTIL,inactive
9,EASNCFAIRHFENKFAVETLICQIY,inactive
10,EASNCFAIRHFENKFAVETLICQKCGSWV,inactive
11,EASNCFAIRHFENKFAVETLICQKMGGTSSRVGE,inactive
12,EASNCFAIRHFENKFAVETLICQKQNWSCRSMRA,inactive
13,EASNCFAIRHFENKFAVETLICQLCSAWASLLMD,inactive
14,EASNCFAIRHFENKFAVETLICQLETGGHSQCCR,inactive
15,EASNCFAIRHFENKFAVETLICQLFSDKGTRPRR,3.35
16,EASNCFAIRHFENKFAVETLICQLKVVELARYLL,inactive
17,EASNCFAIRHFENKFAVETLICQLMIPGDHINSA,4.59
18,EASNCFAIRHFENKFAVETLICQLQSRMCFTNRS,inactive
19,EASNCFAIRHFENKFAVETLICQLQVSRRTKVFR,2.75
20,EASNCFAIRHFENKFAVETLICQLRHMTSIYLPG,inactive
21,EASNCFAIRHFENKFAVETLICQLRI,inactive
22,EASNCFAIRHFENKFAVETLICQLSLRGCVPVPG,inactive
23,EASNCFAIRHFENKFAVETLICQLVSTS,inactive
24,EASNCFAIRHFENKFAVETLICQLWS,7.84
25,EASNCFAIRHFENKFAVETLICQM,inactive
26,EASNCFAIRHFENKFAVETLICQMATVWALDQVK,inactive
27,EASNCFAIRHFENKFAVETLICQMGLRQCYSRST,inactive
28,EASNCFAIRHFENKFAVETLICQMGLSFRVVYTG,inactive

row,Sequence,amyloid nucleation score
1,EASNCFAIRHFENKFAVETLICQMGSGPKLRHLS,inactive
2,EASNCFAIRHFENKFAVETLICQMLGVWLCATWM,inactive
3,EASNCFAIRHFENKFAVETLICQMLV,inactive
4,EASNCFAIRHFENKFAVETLICQMNYSDNLWSCG,-0.295
5,EASNCFAIRHFENKFAVETLICQMRD,inactive
6,EASNCFAIRHFENKFAVETLICQMVLRAVVAMRK,-0.493
7,EASNCFAIRHFENKFAVETLICQMWFSLAGTALA,inactive
8,EASNCFAIRHFENKFAVETLICQNGARRSSDKGR,0.355
9,EASNCFAIRHFENKFAVETLICQNGLAAPDVCRE,2.74
10,EASNCFAIRHFENKFAVETLICQNIDRRVIIRYC,5.66
11,EASNCFAIRHFENKFAVETLICQNP,inactive
12,EASNCFAIRHFENKFAVETLICQNPDVPEWLGLT,inactive
13,EASNCFAIRHFENKFAVETLICQNWSRTG,1.27
14,EASNCFAIRHFENKFAVETLICQPGVFVVGFVIG,inactive
15,EASNCFAIRHFENKFAVETLICQPILAT,inactive
16,EASNCFAIRHFENKFAVETLICQPLRDVGELLAV,inactive
17,EASNCFAIRHFENKFAVETLICQPMSPICVSRSR,0.636
18,EASNCFAIRHFENKFAVETLICQQGKHRNKEAPT,inactive
19,EASNCFAIRHFENKFAVETLICQQPCCLLGVSCW,inactive
20,EASNCFAIRHFENKFAVETLICQQPWLECAVLVV,inactive
21,EASNCFAIRHFENKFAVETLICQQRGLRSVHIRM,inactive
22,EASNCFAIRHFENKFAVETLICQRAKH,inactive
23,EASNCFAIRHFENKFAVETLICQRCEGQEGSRAS,inactive
24,EASNCFAIRHFENKFAVETLICQRCKRLGECSTK,inactive
25,EASNCFAIRHFENKFAVETLICQRDDGRTCYEIQ,-0.029
26,EASNCFAIRHFENKFAVETLICQREVESRVMGEA,-0.111
27,EASNCFAIRHFENKFAVETLICQREVSFTVAQVM,-0.265

# Same assay, conditions: random library (experiment): 2
row,Sequence,amyloid nucleation score
1,EASNCFAIRHFENKFAVETLICQHIVQEGWAGSL,2.47
2,EASNCFAIRHFENKFAVETLICQIHNYISMSGRW,6.31
3,EASNCFAIRHFENKFAVETLICQISLNV,6.3
4,EASNCFAIRHFENKFAVETLICQKSMWKEDLERR,2.96
5,EASNCFAIRHFENKFAVETLICQKSSGELVKLFC,3.81
6,EASNCFAIRHFENKFAVETLICQKWSLCY,inactive
7,EASNCFAIRHFENKFAVETLICQL,inactive
8,EASNCFAIRHFENKFAVETLICQLASLCLRTYGC,-0.285
9,EASNCFAIRHFENKFAVETLICQLFSLICVVKVG,4.96
10,EASNCFAIRHFENKFAVETLICQLKLYAWSRFRG,inactive
11,EASNCFAIRHFENKFAVETLICQLMPPGHCTIYR,inactive
12,EASNCFAIRHFENKFAVETLICQLSSLYIIRMGC,inactive
13,EASNCFAIRHFENKFAVETLICQLWYMWRVMFKV,inactive
14,EASNCFAIRHFENKFAVETLICQLYTCCR,inactive
15,EASNCFAIRHFENKFAVETLICQMFYGV,6.77
16,EASNCFAIRHFENKFAVETLICQMVFFLFADAPG,inactive
17,EASNCFAIRHFENKFAVETLICQN,inactive
18,EASNCFAIRHFENKFAVETLICQNLANKHLCMPS,inactive
19,EASNCFAIRHFENKFAVETLICQNTCKER,inactive
20,EASNCFAIRHFENKFAVETLICQNTFCFMRQMSE,3.25
21,EASNCFAIRHFENKFAVETLICQNVITYDDTASL,8.25
22,EASNCFAIRHFENKFAVETLICQNWGTRQYTSRD,3.97
23,EASNCFAIRHFENKFAVETLICQPDNCVVIVMVQ,4.63
24,EASNCFAIRHFENKFAVETLICQPEQFPMTSRVS,inactive
25,EASNCFAIRHFENKFAVETLICQRFAPLVFVDIG,inactive
26,EASNCFAIRHFENKFAVETLICQRFYARLNLVWL,inactive

# Same assay, conditions: random library (experiment): 3
row,Sequence,amyloid nucleation score
1,EASNCFAIRHFENKFAVETLICQHVVLGHGRRTW,2.46
2,EASNCFAIRHFENKFAVETLICQIATLWSSPTGA,inactive
3,EASNCFAIRHFENKFAVETLICQIGFT,5.35
4,EASNCFAIRHFENKFAVETLICQILCFVISRRFS,inactive
5,EASNCFAIRHFENKFAVETLICQIMLLRSFFRVA,inactive
6,EASNCFAIRHFENKFAVETLICQIPYRMDLGSR,-0.414
7,EASNCFAIRHFENKFAVETLICQIRHGLQFCRGP,inactive
8,EASNCFAIRHFENKFAVETLICQKCVSRLVNHA,inactive
9,EASNCFAIRHFENKFAVETLICQKHKRRPARHVC,inactive
10,EASNCFAIRHFENKFAVETLICQLDARKWPEGCG,inactive
11,EASNCFAIRHFENKFAVETLICQLDGPWIVIVFR,inactive
12,EASNCFAIRHFENKFAVETLICQLLFRCSVSFSS,inactive
13,EASNCFAIRHFENKFAVETLICQLMDVRSERWTD,inactive
14,EASNCFAIRHFENKFAVETLICQLPLQPGMYETA,inactive
15,EASNCFAIRHFENKFAVETLICQLRPTGDSTQRL,inactive
16,EASNCFAIRHFENKFAVETLICQLVVEVLVDGRV,inactive
17,EASNCFAIRHFENKFAVETLICQLWLLMMLLRSR,inactive
18,EASNCFAIRHFENKFAVETLICQMCINYRRNLRH,inactive
19,EASNCFAIRHFENKFAVETLICQMERRFG,0.64

row,Sequence,amyloid nucleation score
1,EASNCFAIRHFENKFAVETLICQMGCGWGRYWRR,-0.396
2,EASNCFAIRHFENKFAVETLICQMQRRVGPHLAG,inactive
3,EASNCFAIRHFENKFAVETLICQMS,inactive
4,EASNCFAIRHFENKFAVETLICQMSLAMGWCWRI,inactive
5,EASNCFAIRHFENKFAVETLICQMSRAVLQTTRS,inactive
6,EASNCFAIRHFENKFAVETLICQMVGRVTWGWR,inactive
7,EASNCFAIRHFENKFAVETLICQNCFNVLRISAT,6.34
8,EASNCFAIRHFENKFAVETLICQNGSG,inactive
9,EASNCFAIRHFENKFAVETLICQNWANDVDRRC,1.42
10,EASNCFAIRHFENKFAVETLICQPGWE,inactive
11,EASNCFAIRHFENKFAVETLICQPLH,inactive
12,EASNCFAIRHFENKFAVETLICQPQGQYCDGWWR,1.3
13,EASNCFAIRHFENKFAVETLICQQDHVKTSCVGP,inactive
14,EASNCFAIRHFENKFAVETLICQQEGRQDGQWGR,inactive
15,EASNCFAIRHFENKFAVETLICQQGARYTKDLIR,inactive
16,EASNCFAIRHFENKFAVETLICQQL,0.297
17,EASNCFAIRHFENKFAVETLICQQMRSSFKPSTV,inactive
18,EASNCFAIRHFENKFAVETLICQQWEGCPVANRR,inactive
19,EASNCFAIRHFENKFAVETLICQRERDN,inactive

# — the supplement of paper PMC12067230
